# From the supplement of paper PMC8728848
# The list shows a part of the results.
# B1: GS7807H-bfa-490-18-490 (Bacteroides fragilis) (protein)
# chain: GNLEEMNIDPDNATQTHPKLLLTQICMNAFKRGTDGMYATKKVIQADGESADQYYKWTRGSFGYYDNLRNVQKMGEEAERVNAPVYTALTKFFRAYYFYELTLRFGDIPYSQALKGEKEEIYTPEYDAQEDVFAGILQELREADEILANDASVIDGDIIYNGNSTQWRKLINSFRLKVLMTLSNHTTVGNINIASEFKNIATNSPLMNSLADNGQLVYLDQQGNRYPQFNAQWSGYYMDDTFIQRMRERRDPRLFIFSAQTNKGKTEGKPIDDFSSYEGGDPAAPYSDAIIKVSEGTISPINDRFRTDPIVEPTMLMGYAELQQILAEAVVRGWISGNAQTYYEKGIRASFSFYETHAKDYAGYLNENAVAQYLKEPLVDFTQASGTEEQIERIIMQKYLVTFYQGNWDSFYEQLRTGYPDFRRPAGTEIPKRWMYPQGEYDNNGTNVETAITRQFGAGNDKINQATWWQKKS
# Key:
# Experiment in all cases: glycan array binding signal (z-score within array); higher = stronger binding
# Details in all cases: glycan notation: IUPAC condensed, linker removed
# Fuc(a1-3)GlcNAc = biological target: Fuc(a1-3)GlcNAc
# How it was run: (§1)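 From the Consortium for Functional Glycomics database, 3228 arrays were curated, keeping only those whose protein sequence was available. Binding is given as a within-array Z-score averaged across arrays sharing a protein sequence and across linkers. Negative Z-scores can be read as non-binding.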
# [1] = biological target: Fuc(a1-3)[Gal(b1-4)]Glc6S
# How it was run: as §1
# [2] = biological target: Fuc(a1-3)[Gal(b1-4)]GlcNAc
# How it was run: as §1
# [3] = biological target: Fuc(a1-3)[Gal(b1-4)]GlcNAc(b1-2)Man
# How it was run: as §1
# [4] = biological target: Fuc(a1-3)[Gal(b1-4)]GlcNAc(b1-2)Man(a1-3)[Fuc(a1-3)[Gal(b1-4)]GlcNAc(b1-2)Man(a1-6)]Man(b1-4)GlcNAc(b1-4)GlcNAc
# How it was run: as §1
# [5] = biological target: Fuc(a1-3)[Gal(b1-4)]GlcNAc(b1-2)Man(a1-3)[Fuc(a1-3)[Gal(b1-4)]GlcNAc(b1-2)Man(a1-6)]Man(b1-4)GlcNAc(b1-4)[Fuc(a1-6)]GlcNAc
# How it was run: as §1
# [6] = biological target: Fuc(a1-3)[Gal(b1-4)]GlcNAc(b1-3)Gal(b1-3)[Fuc(a1-4)]GlcNAc
# How it was run: as §1
# [7] = biological target: Fuc(a1-3)[Gal(b1-4)]GlcNAc(b1-3)Gal(b1-4)[Fuc(a1-3)]GlcNAc
# How it was run: as §1
# [8] = biological target: Fuc(a1-3)[Gal(b1-4)]GlcNAc(b1-3)Gal(b1-4)[Fuc(a1-3)]GlcNAc(b1-3)Gal(b1-4)[Fuc(a1-3)]GlcNAc
# How it was run: as §1
# [9] = biological target: Fuc(a1-3)[Gal(b1-4)]GlcNAc(b1-3)GalNAc
# How it was run: as §1
# [10] = biological target: Fuc(a1-3)[Gal(b1-4)]GlcNAc(b1-6)GalNAc
# How it was run: as §1
# [11] = biological target: Fuc(a1-3)[Gal(b1-4)]GlcNAc(b1-6)[Gal(b1-3)GlcNAc(b1-3)]Gal(b1-4)Glc
# How it was run: as §1
# [12] = biological target: Fuc(a1-3)[Gal(b1-4)]GlcNAc6S
# How it was run: as §1
# [13] = biological target: Fuc(a1-3)[Gal3S(b1-4)]Glc
# How it was run: as §1
# [14] = biological target: Fuc(a1-3)[Gal3S(b1-4)]GlcNAc
# How it was run: as §1
# [15] = biological target: Fuc(a1-3)[Gal3S(b1-4)]GlcNAc6S
# How it was run: as §1
# [16] = biological target: Fuc(a1-3)[GalNAc(b1-4)]GlcNAc
# How it was run: as §1
# [17] = biological target: Fuc(a1-3)[GalNAc(b1-4)]GlcNAc6S
# How it was run: as §1
# Fuc(a1-4)GlcNAc = biological target: Fuc(a1-4)GlcNAc
# How it was run: as §1
# Fuc(b1-3)GlcNAc = biological target: Fuc(b1-3)GlcNAc
# How it was run: as §1
# Gal(a1-2)Gal = biological target: Gal(a1-2)Gal
# How it was run: as §1
# Gal(a1-3)Gal = biological target: Gal(a1-3)Gal
# How it was run: as §1
# Gal(a1-3)Gal(b1-3)GlcNAc = biological target: Gal(a1-3)Gal(b1-3)GlcNAc
# How it was run: as §1
# [18] = biological target: Gal(a1-3)Gal(b1-3)GlcNAc(b1-2)Man
# How it was run: as §1
# [19] = biological target: Gal(a1-3)Gal(b1-3)GlcNAc(b1-2)Man(a1-3)[Gal(a1-3)Gal(b1-3)GlcNAc(b1-2)Man(a1-6)]Man(b1-4)GlcNAc(b1-4)GlcNAc
# How it was run: as §1
# [20] = biological target: Gal(a1-3)Gal(b1-3)GlcNAc(b1-3)GalNAc
# How it was run: as §1
# [21] = biological target: Gal(a1-3)Gal(b1-3)GlcNAc(b1-6)GalNAc
# How it was run: as §1
# [22] = biological target: Gal(a1-3)Gal(b1-3)[Fuc(a1-4)]GlcNAc(b1-2)Man(a1-3)[Gal(a1-3)Gal(b1-3)[Fuc(a1-4)]GlcNAc(b1-2)Man(a1-6)]Man(b1-4)GlcNAc(b1-4)GlcNAc
# How it was run: as §1
# Gal(a1-3)Gal(b1-4)Glc = biological target: Gal(a1-3)Gal(b1-4)Glc
# How it was run: as §1
# Gal(a1-3)Gal(b1-4)GlcNAc = biological target: Gal(a1-3)Gal(b1-4)GlcNAc
# How it was run: as §1
# [23] = biological target: Gal(a1-3)Gal(b1-4)GlcNAc(b1-2)Man
# How it was run: as §1
# [24] = biological target: Gal(a1-3)Gal(b1-4)GlcNAc(b1-2)Man(a1-3)[Gal(a1-3)Gal(b1-4)GlcNAc(b1-2)Man(a1-6)]Man(b1-4)GlcNAc(b1-4)GlcNAc
# How it was run: as §1
# [25] = biological target: Gal(a1-3)Gal(b1-4)GlcNAc(b1-3)GalNAc
# How it was run: as §1
# [26] = biological target: Gal(a1-3)Gal(b1-4)GlcNAc(b1-6)GalNAc
# How it was run: as §1
# [27] = biological target: Gal(a1-3)Gal(b1-4)[Fuc(a1-3)]GlcNAc
# How it was run: as §1
# [28] = biological target: Gal(a1-3)Gal(b1-4)[Fuc(a1-3)]GlcNAc(b1-2)Man(a1-3)[Gal(a1-3)Gal(b1-4)[Fuc(a1-3)]GlcNAc(b1-2)Man(a1-6)]Man(b1-4)GlcNAc(b1-4)GlcNAc
# How it was run: as §1
# Gal(a1-3)GalNAc = biological target: Gal(a1-3)GalNAc
# How it was run: as §1
# [29] = biological target: Gal(a1-3)[Gal(a1-4)]Gal(b1-4)GlcNAc
# How it was run: as §1
# [30] = biological target: Gal(a1-4)Gal(b1-3)GlcNAc(b1-2)Man(a1-3)[Gal(a1-4)Gal(b1-3)GlcNAc(b1-2)Man(a1-6)]Man(b1-4)GlcNAc(b1-4)GlcNAc
# How it was run: as §1
# Gal(a1-4)Gal(b1-4)Glc = biological target: Gal(a1-4)Gal(b1-4)Glc
# How it was run: as §1
# Gal(a1-4)Gal(b1-4)GlcNAc = biological target: Gal(a1-4)Gal(b1-4)GlcNAc
# How it was run: as §1
# [31] = biological target: Gal(a1-4)Gal(b1-4)GlcNAc(b1-2)Man(a1-3)[Gal(a1-4)Gal(b1-4)GlcNAc(b1-2)Man(a1-6)]Man(b1-4)GlcNAc(b1-4)GlcNAc
# How it was run: as §1
# [32] = biological target: Gal(a1-4)Gal(b1-4)GlcNAc(b1-3)Gal(b1-4)Glc
# How it was run: as §1
# Gal(a1-4)GlcNAc = biological target: Gal(a1-4)GlcNAc
# How it was run: as §1
# Gal(a1-6)Glc = biological target: Gal(a1-6)Glc
# How it was run: as §1
binder,measurement,setting,value
B1,glycan array binding signal (z-score),Fuc(a1-3)GlcNAc,0.007
same,glycan array binding signal (z-score),[1],1.17
same,glycan array binding signal (z-score),[2],-0.003
same,glycan array binding signal (z-score),[3],-0.436
same,glycan array binding signal (z-score),[4],-0.314
same,glycan array binding signal (z-score),[5],1.38
same,glycan array binding signal (z-score),[6],-0.645
same,glycan array binding signal (z-score),[7],0.068
same,glycan array binding signal (z-score),[8],0.166
same,glycan array binding signal (z-score),[9],-0.221
same,glycan array binding signal (z-score),[10],0.004
same,glycan array binding signal (z-score),[11],0.603
same,glycan array binding signal (z-score),[12],-0.707
same,glycan array binding signal (z-score),[13],0.171
same,glycan array binding signal (z-score),[14],1.21
same,glycan array binding signal (z-score),[15],-0.037
same,glycan array binding signal (z-score),[16],0.141
same,glycan array binding signal (z-score),[17],-0.224
same,glycan array binding signal (z-score),Fuc(a1-4)GlcNAc,-0.114
same,glycan array binding signal (z-score),Fuc(b1-3)GlcNAc,-0.102
same,glycan array binding signal (z-score),Gal(a1-2)Gal,-0.754
same,glycan array binding signal (z-score),Gal(a1-3)Gal,-0.011
same,glycan array binding signal (z-score),Gal(a1-3)Gal(b1-3)GlcNAc,0.074
same,glycan array binding signal (z-score),[18],-0.175
same,glycan array binding signal (z-score),[19],1.66
same,glycan array binding signal (z-score),[20],-0.576
same,glycan array binding signal (z-score),[21],0.244
same,glycan array binding signal (z-score),[22],0.346
same,glycan array binding signal (z-score),Gal(a1-3)Gal(b1-4)Glc,-0.168
same,glycan array binding signal (z-score),Gal(a1-3)Gal(b1-4)GlcNAc,-0.116
same,glycan array binding signal (z-score),[23],-0.183
same,glycan array binding signal (z-score),[24],0.546
same,glycan array binding signal (z-score),[25],1.17
same,glycan array binding signal (z-score),[26],-0.527
same,glycan array binding signal (z-score),[27],-0.127
same,glycan array binding signal (z-score),[28],1.36
same,glycan array binding signal (z-score),Gal(a1-3)GalNAc,-0.364
same,glycan array binding signal (z-score),[29],0.689
same,glycan array binding signal (z-score),[30],0.426
same,glycan array binding signal (z-score),Gal(a1-4)Gal(b1-4)Glc,0.193
same,glycan array binding signal (z-score),Gal(a1-4)Gal(b1-4)GlcNAc,0.003
same,glycan array binding signal (z-score),[31],6.27
same,glycan array binding signal (z-score),[32],-0.594
same,glycan array binding signal (z-score),Gal(a1-4)GlcNAc,-0.31
same,glycan array binding signal (z-score),Gal(a1-6)Glc,-0.313
